These results are taken from paper PMC10668032.

This is one part of the list. At the low end of the ranking the order means little.

The assay deals with SIX1-Q177R homeodomain (UniProt Q15475). In words: universal protein binding microarray. The note with it: Universal all-10-mer PBM (8x60K, AMADID 030236), 300 nM GST-tagged protein, Alexa Fluor 488 anti-GST; buffer, salt, pH and temperature not stated; high values mean tight binding; most listed sequences are background and not binding sites; double strand, one strand shown.
With AGGGGAAG, the binding signal came to 0.123 E-score.
To GGAAGCCA belongs -0.235 E-score; to AACGTGGT, -0.0159 E-score.
Turning to CTATCGGA, the binding signal is -0.072 E-score.
To CGTCACTA belongs 0.0632 E-score.
To AGGTCCTA belongs -0.0921 E-score; to ACAGGCCG, -0.0796 E-score; to ATCGGCAG, -0.081 E-score.
To CATACGCC belongs 0.0823 E-score; to TCCCGCGA, 0.0888 E-score; to CATGAATA, -0.0546 E-score.
As for AACGCTAG, the binding signal came to 0.0725 E-score.
Turning to CATGGCGC, the binding signal is -0.159 E-score.
Turning to GAGGAGAA, the binding signal was -0.0834 E-score.
To GGCTCCCC belongs -0.00441 E-score; to GCATCTTA, -0.139 E-score.
To CATGTAGA belongs -0.0744 E-score.
To ACGGAGTG belongs 0.167 E-score; to ACAGACGC, 0.0512 E-score; to AATAATAT, -0.0332 E-score.
In the case of CCCTACGC, the binding signal turned out to be 0.0375 E-score.
Regarding GGTCAGGA, the binding signal stood at 0.0543 E-score.
To ACGTCGCC belongs -0.0847 E-score; to CTAGTGGA, 0.0148 E-score.
To CCAGAAAA belongs 0.0038 E-score.
As for CGGGTCTA, the binding signal stood at 0.0718 E-score.
To CTGCCGCA belongs -0.165 E-score; to GAGTCGGC, 0.0544 E-score.
To AGCGGACT belongs -0.249 E-score; to GTCTGGGA, -0.116 E-score.
To CCTGCGTC belongs -0.0174 E-score.
On to ACAGGGGC, for which the binding signal was found to be 0.028 E-score.
Regarding AGTGCCGG, the binding signal was determined as 0.00171 E-score.
To ATTTATGC belongs -0.0985 E-score; to CTAGCCTA, -0.181 E-score.
For the sequence GGATCTAA, the binding signal came out at 0.0388 E-score.
To GAAAGCTA belongs 0.00483 E-score; to GAAAGAGC, -0.203 E-score.
Consider GCGAGAAA, for which the binding signal was -0.198 E-score.
To CCATAAAA belongs -0.208 E-score; to CTTCAGCC, -0.0579 E-score.
As for GTTAACAA, the binding signal was 0.00726 E-score.
As for CTCTGCAC, the binding signal was determined as 0.0268 E-score.
To ATCGTTTC belongs -0.243 E-score.
To CCAAGCAG belongs -0.211 E-score.
Take AAATAGAA: the binding signal was -0.272 E-score.
Consider TGCCACAA, for which the binding signal was -0.183 E-score.
Take CCGGTCGC: the binding signal was -0.228 E-score.
To CCCGAAGA belongs -0.0573 E-score; to CTGTCCGC, -0.248 E-score.
To AGCCAAAG belongs -0.213 E-score.
Turning to CCAACAGG, the binding signal was 0.00226 E-score.
In the case of CTATTATC, the binding signal was -0.0413 E-score.
To CAAAACTG belongs -0.0527 E-score.
Consider ACTGCATG, for which the binding signal was -0.0929 E-score.
As to AGCGGCCC, the binding signal is -0.109 E-score.
Regarding GCCCTTAA, the binding signal is -0.137 E-score.
To ATGACTGG belongs 0.0975 E-score; to GTGTGAAC, 0.362 E-score; to GGCAGTTA, 0.0716 E-score.
To ATGCAACG belongs 0.0449 E-score; to AAAATGGG, -0.276 E-score; to CGGGGCTC, -0.0145 E-score.
To ATAGAGTA belongs -0.0184 E-score.
Take AGTGAAAT: the binding signal is -0.317 E-score.
To TGACTCAA belongs -0.248 E-score; to CTTAAAAG, -0.24 E-score; to CCGTCGCG, 0.0978 E-score.
With TAAGGTAA, the binding signal worked out at 0.053 E-score.
To CAAGGGCA belongs -0.0794 E-score; to ATAGAGAA, -0.0459 E-score; to AATTATCT, -0.225 E-score.
To TATAAGCA belongs -0.142 E-score; to GTGAGTTA, -0.0803 E-score.
To ACTAAACC belongs 0.106 E-score; to GGTCTATA, -0.0594 E-score; to ATGCAAAT, 0.00259 E-score.
Regarding ATCGTACA, the binding signal was found to be 0.132 E-score.
To CTACACAA belongs 0.119 E-score.
To ACCAGCCA belongs -0.012 E-score.
To CATGATAG belongs -0.0993 E-score; to TACTGCTA, -0.0332 E-score.
For the sequence TCGCTACA, the binding signal was -0.0419 E-score.
To GAGCCCAC belongs 0.0874 E-score; to AGCGCTGG, -0.234 E-score.
To CCCCTTAG belongs 0.128 E-score; to ACCGAAAC, 0.0339 E-score.
To CTCTCTTC belongs -0.152 E-score; to ATAATGTG, -0.0492 E-score.
In the case of GCCCGCGA, the binding signal is -0.128 E-score.
As for AGGAAAAC, the binding signal is -0.0414 E-score.
To CTTTCGTA belongs -0.192 E-score.
For the sequence TGAGGGAA, the binding signal was -0.0497 E-score.
To ATCTGATC belongs 0.105 E-score; to AGTCCAAG, -0.0372 E-score; to GAGCGGGC, -0.0848 E-score.
With CTACAACA, the binding signal turned out to be 0.161 E-score.
To AAGGCCGG belongs -0.0941 E-score; to GACCAACC, 0.0465 E-score; to CGCTTCAA, -0.0806 E-score.
To GGTGCCTA belongs 0.171 E-score.
Turning to GTGTACAA, the binding signal was determined as 0.429 E-score.
To GAGTATCC belongs 0.199 E-score.
As to AAGGGATC, the binding signal came to 0.194 E-score.
To AAGCGGGT belongs 0.0964 E-score; to AAGAGCGC, -0.198 E-score.
To AATGCATA belongs -0.104 E-score; to TCATAGAA, -0.182 E-score.
To ACATAGTC belongs -0.164 E-score; to CGATACAC, 0.402 E-score; to TAGATGAA, -0.174 E-score.
For the sequence CAGGCGAC, the binding signal is -0.00654 E-score.
To CACATGCG belongs -0.0235 E-score; to ATCGCCGC, 0.034 E-score.
To CACGGGGG belongs 0.319 E-score; to TCAAGACA, 0.0267 E-score.
As to ACAAGTAA, the binding signal is -0.184 E-score.
To GCGAACAC belongs 0.409 E-score; to ATATCAAG, -0.136 E-score; to AACATGTC, -0.0345 E-score.
To ATTTTAAG belongs -0.281 E-score; to CTCCTAGC, -0.097 E-score; to ACAGGTTA, -0.155 E-score.
Regarding GCCGACGC, the binding signal was -0.0584 E-score.
To ATCTTGCG belongs -0.236 E-score; to TGCCACCA, -0.144 E-score.
For the sequence GCGCATGA, the binding signal was determined as 0.0225 E-score.
As to CAGCACTG, the binding signal is -0.095 E-score.
GTGAAGTA: the binding signal is -0.197 E-score.
To AAGCCTCC belongs -0.34 E-score; to AGGCAAAC, -0.111 E-score; to AAGAACGT, -0.166 E-score.
As to CAACAAAA, the binding signal was -0.0545 E-score.
As to AGTTACGC, the binding signal is -0.0795 E-score.
To ACAACTGA belongs -0.000625 E-score; to TGCCGCAA, -0.0321 E-score; to ATCACTTC, 0.0109 E-score.
With ACGAATGC, the binding signal is -0.154 E-score.
Regarding GAAATGCC, the binding signal was -0.105 E-score.
As to GACCATAC, the binding signal was -0.135 E-score.
Take GGACGACA: the binding signal is 0.16 E-score.
With CACTATGA, the binding signal is 0.00301 E-score.
With CGGTACTA, the binding signal is -0.0595 E-score.
AGGACTGC: the binding signal is -0.366 E-score.
Consider ACTCATCC, for which the binding signal was 0.0455 E-score.
To AGCTTTCA belongs 0.0659 E-score; to ATACATGA, -0.0207 E-score; to CGTACTAG, -0.0427 E-score.
To ATCCTCGG belongs 0.0467 E-score; to CGGACCAC, 0.0274 E-score; to CTGGGTGA, 0.0346 E-score.
To AAATGGCT belongs -0.141 E-score.
Regarding ACGAGTAG, the binding signal stood at 0.0547 E-score.
Regarding CTGCCTCC, the binding signal is -0.147 E-score.
To ACCAAAGG belongs 0.126 E-score; to CTGCGGGC, -0.116 E-score.
To GTAGGAGA belongs -0.128 E-score.
To AGACCGTG belongs 0.045 E-score.
ATCACGCC: the binding signal turned out to be 0.0868 E-score.
In the case of ACCTAGGA, the binding signal was determined as 0.0894 E-score.
For the sequence GCCTCCGA, the binding signal is -0.12 E-score.
To AATACTCT belongs 0.0402 E-score; to GTAATTTA, -0.0893 E-score; to CCGGTAGC, -0.113 E-score.
Regarding TGAATCCA, the binding signal is -0.225 E-score.
To CTGTCGAC belongs -0.0196 E-score; to AACGTGAC, -0.0839 E-score.
In the case of GGAGCTCA, the binding signal is -0.105 E-score.
To AGAAAATA belongs -0.191 E-score; to GTCGTGCA, 0.181 E-score.
For CTGTCCCC, the binding signal is -0.103 E-score.
To AAAAGAAC belongs -0.0108 E-score.
